According to the supplement of paper PMC10126150:
Values marked as one replicate rest on one cluster of the flow cell; about a third of the high ones do not repeat.

These sequences were tested on ATP (assay: switch fluorescence ratio, 500 uM ATP over buffer (Cy3 cluster intensity, sum of 5 cycles each) (fold (ratio)); higher = stronger signal-on switching upon ATP binding; sequences stand for … in TCGTCGGCAGCGTCAGATGTGTATAAGAGACAGTTTTTTTTTTTTTTTTTTTTTTTTT…TC). Conditions: aptamer strand: ATP DNA aptamer (quencher-CACCTGGGGGAGTATTGCGGAGGAAGG + anchor), 100 nM annealed; ATP concentration: 500 uM; one replicate.
Procedure, shortened: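 Clusters carrying Cy3-labelled switching strands on a modified Illumina MiSeq flow-cell were annealed to 100 nM quencher-labelled ATP aptamer and imaged in selection buffer. They were imaged again after 15 min with 500 uM ATP at 22 °C, over five buffer/ATP cycles with NaOH stripping and re-annealing in between. For each cluster, the fluorescence ratio is the summed Cy3 intensity of the target cycles divided by that of the buffer cycles, averaged per switch-domain sequence. Clusters outside 100-1000 RFU were left out.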
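Also: ATP exposure 15 min at 22 °C before imaging.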

Row | Sequence | switch fluorescence ratio
1 | AGATAGTTTC | 1.01
2 | CTTTTTTTA | 1.01
3 | TTGGTAGGCT | 0.988
4 | TAGTGTGGTT | 0.959
5 | GACATGGAAG | 1.02
6 | TATCGAATGC | 0.906
7 | GAATCTACGC | 1.12
8 | CGCGGCTGC | 1.05
9 | GTTTCCTTTT | 1.01
10 | CTCTAGGTTC | 1.06
11 | GGGCGCGTGA | 1.23
12 | GGCGTAAGGC | 1.03
13 | TGTTCATGTG | 0.995
14 | AAAGGGGTT | 0.979
15 | TCTTTTGTTT | 1.31
16 | GCCGAAGGGA | 1.46
17 | CCATAAGGCT | 1.04
18 | AATACCGCTG | 0.988
19 | TCCTATCAGC | 1.16
20 | CTACGCGTAA | 1.62
21 | CTTGGCAGCC | 0.998
22 | TTTATTCAA | 1.03
23 | AGAGGGATGC | 1.01
24 | TTGGGAGGG | 0.963
25 | TGTGACCGTT | 1.04
26 | TCTTACATTT | 1.04

Row | Sequence | switch fluorescence ratio
27 | CGTTGGTCGG | 0.988
28 | CAGATTACTA | 1.01
29 | TTCTATTCCA | 0.99
30 | ACTGAGATAA | 1.04
31 | ACTTGCACCG | 1.25
32 | TTCAGGGTGC | 1.08
33 | TTCGTGTCTA | 1.01
34 | TTTGCTAACA | 1.05
35 | AGTGGGCTAG | 1.01
36 | AAGTTATACC | 1.03
37 | TATATCAA | 1.03
38 | ACAAACCCG | 1.03
39 | CTTACCGCTA | 1.69
40 | GTACGCAACG | 1.23
41 | ACTTTGGGC | 0.986
42 | CTAGGTGAAC | 1.07
43 | CTGGTATAT | 1.01
44 | GCTCGAAATT | 1.03
45 | CCGTATGGCT | 0.983
46 | GGATGATAGA | 1.01
47 | AGCATAAATA | 1.01
48 | ATGAGTGTCC | 1.06
49 | GCTTAAATGA | 1
50 | AATGGTAGAC | 1.01
51 | CAGCTGGCAA | 2.15
52 | CGACTCCCAC | 2.73

Row | Sequence | switch fluorescence ratio
53 | CGCCGCTGCT | 1.23
54 | TGGCGGGCGG | 1.03
55 | AGTCCAAGTA | 1.02
56 | CTGGGAGTGC | 0.964
57 | GTCCTTTGGG | 1.65
58 | CGATAATGTT | 1.01
59 | AAGAACGACT | 0.971
60 | AGCATGTGCT | 1.01
61 | CTGGCGTGCA | 1.58
62 | AATTCAAAGT | 0.964
63 | CCTTTCGAGG | 1.2
64 | GTTGAACCGA | 1.11
65 | ATCGGTAGAA | 1.01
66 | TCAGTTTAAG | 1
67 | GGGCCAATAG | 1.01
68 | CTATCGGTGG | 1.04
69 | TCTAGGTTTG | 0.968
70 | GCGATTTTCA | 1
71 | TTCGGGCACA | 1.04
72 | CTGTGTAAGT | 0.984
73 | AGTACGGTTG | 0.948
74 | CGGTTCTGGG | 1
75 | CGTGCCTAAG | 0.967
76 | TCAGATTGAC | 0.978
77 | TCGTAGGAGT | 1.07
78 | CCCGGTTGTC | 1.11

Row | Sequence | switch fluorescence ratio
79 | TCCTCGCCAG | 1.98
80 | ACTGGTAGCA | 1.05
81 | ATATAATTGG | 1.05
82 | AAACTACGTA | 1.21
83 | TCAAGGACTA | 1.03
84 | ATCCTTGGCG | 1
85 | CGCGCTTTTT | 1
86 | CCTAAATACA | 1.15
87 | AGAAGAGGG | 1.02
88 | ATAATACGCT | 1.09
89 | ATATATACTT | 0.982
90 | TTAAGACACG | 1.02
91 | TCGGCACTGA | 1.04
92 | AGTTATATGC | 0.971
93 | CAGCTGTGCG | 1.06
94 | CGCTGGGCGG | 1
95 | GATTCGAACA | 0.995
96 | TAACCCGTTT | 1
97 | GGGTAATAGC | 1.02
98 | TGCGACCGGG | 0.931
99 | AACCGCTACG | 1.25
100 | CCTGTTTTAG | 1.03
101 | CTCAGGTTAT | 1.01
102 | TCCGAATTGA | 1.05
103 | CCACGCATGG | 3.95
104 | GCGACTAGG | 1.02

Row | Sequence | switch fluorescence ratio
105 | TGCCGGGCGT | 0.999
106 | AACTCGGGGC | 0.944
107 | CTCTGTCAAC | 3.07
108 | ACTGTGCGG | 1.02
109 | ATATAGGGTA | 1
110 | TCCATGTTGT | 1.01
111 | GGTATGTACT | 1.02
112 | CCATGCTGTT | 0.974
113 | GACGCTCTTT | 0.995
114 | AACGCTACTG | 1.69
115 | TTGATGGTTA | 0.989
116 | GTGATACCTA | 1.01
117 | CCCTCAAAGT | 3
118 | CATCAAGTGC | 1.19
119 | GTGGGGCTAC | 1.03
120 | AATTGGCCAC | 1.01
121 | ATGGTACAG | 1.02
122 | GCGGTTAATT | 0.987
123 | ATTTAAATAA | 0.955
124 | ATGTAAAAGG | 0.966
125 | TGTTGTGTGC | 1.07
126 | CCGCTCTTGA | 1.4
127 | CATTGTAG | 0.997
128 | TCATACTACG | 1.09
129 | ACGCTAGGAC | 1.67
130 | TTGATGGCTC | 0.976

Row | Sequence | switch fluorescence ratio
131 | AAGCTGGACT | 1.01
132 | TGATTTGAGC | 0.961
133 | TCATTGGGAT | 0.976
134 | AATTCGTGGG | 0.961
135 | ACTGGCTAGG | 1.01
136 | CTACCAGGAA | 1.06
137 | AATGAGGAAC | 0.972
138 | GGCGTCGGTG | 1.04
139 | CGTCGAACGT | 0.993
140 | CCTCAGGTGT | 2.96
141 | TTTATGACTC | 0.986
142 | ACAAGCTTCA | 1.34
143 | ACAATTTTGT | 1.04
144 | ACAAGCTGCG | 1.01
145 | AAAGGATGTG | 1.02
146 | ATCAGTAAGA | 0.985
147 | GTTCGGGGGA | 1.05
148 | TATGCCAGT | 1.01
149 | TTTGAATCCG | 1
150 | ATTTACTCGG | 1.06
151 | CGGATATTCT | 0.932
152 | GTCAAAAAAT | 0.966
153 | CCCCGAATAA | 3.57
154 | GCACTTGCAC | 1.04
155 | CAGGCGGGTC | 1.03
156 | TCAATGTGAG | 0.968

Row | Sequence | switch fluorescence ratio
157 | ATGCATAATA | 1.02
158 | TCGCTATAAG | 1.08
159 | AGTTACGTTG | 1.05
160 | GGGACCCGTT | 1.04
161 | GCCTGGTCTC | 1.02
162 | AAACGGGAC | 1.18
163 | AAGTTACGGA | 1.13
164 | GTGGATGTGG | 0.986
165 | AACTTGTGAA | 1.03
166 | ATCTTGGTTA | 1
167 | GTTGGGCTTC | 1.01
168 | AGCGGGTGTC | 1
169 | GGGTCAATGT | 1.02
170 | GGAGCTGAAA | 1.03
171 | TTTTACAAAT | 1.79
172 | TGACTTAAAG | 1
173 | GACCCGACGT | 1.28
174 | CTAAAACCCC | 1.04
175 | ATCAAGAATT | 1.01
176 | TCAGTTGCG | 1.01
177 | TCGTACGGAT | 1.03
178 | GCAGCTTTTG | 1.02
179 | GTGGAAAAGA | 0.951
180 | CCTATTGGTC | 0.964
181 | GCACTTACGG | 1.48
182 | CTCCCGTTTT | 1.01

Row | Sequence | switch fluorescence ratio
183 | AGCCCAGGCA | 1.03
184 | TCACAGTTGA | 1.01
185 | TACCTAGCGT | 1
186 | AATGACGGGA | 1.05
187 | ACAGGCTCTA | 1.02
188 | CCATGAGAAC | 1.01
189 | AATAATGCTA | 0.989
190 | TTCTAGGGG | 0.992
191 | AAGGGGATCT | 1.01
192 | CATAGTTGTA | 0.977
193 | CGGACGCTAG | 1.1
194 | CATTACGGAA | 1.09
195 | GCTTCTCAAA | 0.989
196 | CGTTGATTGG | 1.02
197 | TCCATGCCT | 1.07
198 | CAGTGGGAGC | 0.993
199 | TCTCGATCGT | 1.07
200 | GCTTCAAACT | 0.981
201 | AGCCGAATGA | 0.956
